Source: the supplement of paper PMC6089552
Out of some 3,200 compounds screened, about 300 (9.4%) showed activity. The entries are a selection whose mix differs from that of the whole data set.

Tested on: A673/TR/shEF
Assay: cell viability (LOESS-normalised, relative to median of negative controls) (log2 ratio); higher = more viable cells (less compound effect), active = hit call of the paper (over 3 MAD below the median)
Details: treatment time: 72 h
In short: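 Doxycycline, present or absent from 24 h before compounds, was used to induce EWS-FLI1 shRNA knockdown in A673/TR/shEF Ewing sarcoma cells at 1,500 per well in 384-well plates. Cells then received library compounds at two or more concentrations, or DMSO controls, for three days. Viability was measured by CellTiter-Glo luminescence on an Envision reader, and per-plate LOESS correction, division by the negative-control median and log2 transformation followed.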

[1] = 0.25 µM, library screen: screen1, EWS-FLI1 expression: high (no doxycycline)
[2] = 0.25 µM, library screen: screen2, EWS-FLI1 expression: high (no doxycycline)
[3] = 0.308 µM, library screen: screen3, EWS-FLI1 expression: high (no doxycycline)
[4] = 0.926 µM, library screen: screen3, EWS-FLI1 expression: high (no doxycycline)
[5] = 2.5 µM, library screen: screen1, EWS-FLI1 expression: high (no doxycycline)
[6] = 2.5 µM, library screen: screen2, EWS-FLI1 expression: high (no doxycycline)
[7] = 2.8 µM, library screen: screen3, EWS-FLI1 expression: high (no doxycycline)
[8] = 8.3 µM, library screen: screen3, EWS-FLI1 expression: high (no doxycycline)
[9] = 25 µM, library screen: screen3, EWS-FLI1 expression: high (no doxycycline)
[10] = 0.25 µM, library screen: screen1, EWS-FLI1 expression: low (doxycycline-induced shRNA knockdown)
[11] = 2.5 µM, library screen: screen1, EWS-FLI1 expression: low (doxycycline-induced shRNA knockdown)
[12] = 0.25 µM, library screen: screen2, EWS-FLI1 expression: low (doxycycline-induced shRNA knockdown)
[13] = 2.5 µM, library screen: screen2, EWS-FLI1 expression: low (doxycycline-induced shRNA knockdown)
[14] = 0.103 µM, library screen: screen3, EWS-FLI1 expression: high (no doxycycline)
[15] = 0.103 µM, library screen: screen3, EWS-FLI1 expression: low (doxycycline-induced shRNA knockdown)
[16] = 0.308 µM, library screen: screen3, EWS-FLI1 expression: low (doxycycline-induced shRNA knockdown)
[17] = 0.926 µM, library screen: screen3, EWS-FLI1 expression: low (doxycycline-induced shRNA knockdown)
[18] = 2.8 µM, library screen: screen3, EWS-FLI1 expression: low (doxycycline-induced shRNA knockdown)
[19] = 8.3 µM, library screen: screen3, EWS-FLI1 expression: low (doxycycline-induced shRNA knockdown)
[20] = 25 µM, library screen: screen3, EWS-FLI1 expression: low (doxycycline-induced shRNA knockdown)

Measured: cell viability (log2)

O=c1[nH]c(=O)n([C@H]2C[C@H](O)[C@@H](CO)O2)cc1F
active: [1] -1.07 | [2] -0.231 | [3] -0.266 | [4] -0.534 | [5] -1.48 | [6] -0.805 | [7] -0.621 | [8] -0.85 | 25 µM, library screen: screen2, EWS-FLI1 expression: high (no doxycycline) -0.944 | [9] -1.03

Nc1ccc(C(=O)Oc2ccccc2)c(O)c1
inactive: [1] 0.134 | [10] 0.181 | [5] 0.136 | [11] 0.157

CC1=C(/C=C/C(C)=C/C=C/C(C)=C/C(=O)Nc2ccc(O)cc2)C(C)(C)CCC1
inactive: [2] 0.202 | [12] 0.108 | [6] 0.144 | [13] 0.0949

COc1ccc2c(c1)OCC(=Cc1ccc(OC)c(O)c1)C2=O
inactive: [1] 0.111 | [10] 0.0739 | [5] 0.125 | [11] 0.0254

COc1cc2c(cc1OC)[C@@H](c1ccccc1)CN(C)CC2
inactive: [2] 0.0687 | [12] 0.111 | [6] 0.192 | [13] 0.0125

NC(=O)c1ncn([C@@H]2O[C@H](CO)[C@@H](O)[C@H]2O)c1N
inactive: [14] 0.135 | [15] 0.0617 | [3] 0.0707 | [16] 0.0876 | [4] 0.088 | [17] 0.0588 | [7] 0.1 | [18] 0.0775 | [8] 0.0463 | [19] 0.126 | [9] 0.13 | [20] 0.087

CCC(=O)O[C@H]1[C@H](O[C@@H]2[C@@H](C)[C@H](O[C@H]3C[C@@](C)(OC)[C@@H](O)[C@H](C)O3)[C@@H](C)C(=O)O[C@H](CC)[C@@](C)(O)[C@H](O)[C@@H](C)C(=O)[C@H](C)C[C@@]2(C)O)O[C@H](C)C[C@@H]1N(C)C
inactive: [1] 0.222 | [10] 0.0632 | [5] 0.0888 | [11] 0.166

O=c1cc([C@H]2Oc3cc(O)cc(O)c3C[C@H]2O)cc2c([C@H]3Oc4cc(O)cc(O)c4C[C@H]3O)cc(O)c(O)c2c1O
inactive: [1] 0.0869 | [10] 0.0834 | [5] 0.134 | [11] 0.162

O=C(O)c1cc(O)c2c(c1)[C@H]([C@H]1c3cc(C(=O)O)cc(O)c3C(=O)c3c(O[C@@H]4O[C@H](CO)[C@@H](O)[C@H](O)[C@H]4O)cccc31)c1cccc(O[C@@H]3O[C@H](CO)[C@@H](O)[C@H](O)[C@H]3O)c1C2=O
inactive: [1] 0.102 | [10] 0.0132 | [5] 0.0773 | [11] 0.0657

CC(=O)Oc1cc(C(C)C)c(OCCN(C)C)cc1C
inactive: [2] 0.138 | [12] 0.0935 | [6] 0.152 | [13] 0.139

CCN(CC)C(C)C(=O)N1c2ccccc2Sc2ccccc21 (stereo not drawn)
inactive: [2] 0.104 | [12] 0.0808 | [6] 0.114 | [13] 0.0914

CC(c1cc2ccccc2s1)N(O)C(N)=O (stereo not drawn)
inactive: [14] 0.0127 | [15] 0.0621 | [3] 0.0838 | [16] 0.0693 | [4] 0.0243 | [17] 0.106 | [7] 0.0229 | [18] 0.0581 | [8] -0.00103 | [19] 0.101 | [9] 0.135 | [20] 0.157

C[C@@H]1C(=O)O[C@H]2C[C@@]34[C@H]5C[C@@H](C(C)(C)C)[C@]36[C@@H](OC(=O)[C@@H]6O)O[C@@]4(C(=O)O5)[C@]21O
inactive: [1] 0.045 | [10] 0.0713 | [5] 0.0908 | [11] 0.148

Nc1ccc(S(=O)(=O)c2ccc(N)cc2)cc1
inactive: [1] 0.128 | [10] 0.0378 | [2] 0.169 | [12] 0.151 | [5] 0.17 | [11] 0.175 | [6] 0.125 | [13] 0.107

OC[C@H]1O[C@@H](Oc2ccc(O)cc2)[C@H](O)[C@@H](O)[C@@H]1O
inactive: [1] 0.043 | [10] -0.0242 | [5] 0.114 | [11] 0.0261

OCCN1CCN(CCCN2c3ccccc3Sc3ccc(Cl)cc32)CC1
inactive: [1] 0.00879 | [10] 0.0101 | [2] 0.125 | [12] 0.0375 | [5] 0.124 | [11] 0.151 | [6] 0.179 | [13] 0.136

CN(C)CCc1c[nH]c2ccc(Cn3cncn3)cc12
inactive: [14] 0.0562 | [15] -0.00371 | [3] 0.0343 | [16] 0.0436 | [4] 0.064 | [17] 0.0432 | [7] 0.0685 | [18] 0.0816 | [8] -0.0115 | [19] 0.0507 | [9] 0.0815 | [20] 0.149

CCCCC(=O)N(Cc1ccc(-c2ccccc2-c2nn[nH]n2)cc1)[C@H](C(=O)O)C(C)C
inactive: [14] 0.0298 | [15] -0.0095 | [3] 0.124 | [16] 0.0801 | [4] 0.0765 | [17] 0.054 | [7] 0.0694 | [18] 0.124 | [8] 0.00201 | [19] 0.078 | [9] 0.137 | [20] 0.104

NCCCCCCCCCCN
inactive: [2] 0.103 | [12] 0.1 | [6] 0.0867 | [13] 0.0848

CC(CCC(=O)O)C1CCC2C3CCC4CC(O)CCC4(C)C3CC(O)C12C (stereo not drawn)
inactive: [1] 0.105 | [10] 0.0658 | [5] 0.0998 | [11] -0.158

CC1(C)OC(=O)NC1=O
inactive: [1] 0.219 | [10] 0.229 | [5] 0.216 | [11] 0.255

Cn1nnnc1SCC1=C(C(=O)O)N2C(=O)[C@@H](NC(=O)[C@H](O)c3ccccc3)[C@H]2SC1
inactive: [1] 0.0941 | [10] 0.078 | [5] 0.134 | [11] 0.0231

CCC[C@H](N[C@@H](C)C(=O)N1[C@H](C(=O)O)C[C@@H]2CCCC[C@@H]21)C(=O)OCC
inactive: [14] 0.0551 | [15] 0.0368 | [3] -0.0226 | [16] 0.0389 | [4] -0.00229 | [17] 0.0366 | [7] 0.0283 | [18] -0.00742 | [8] 0.00239 | [19] 0.0184 | [9] -0.0397 | [20] -0.0223

COc1ccc(NS(=O)(=O)c2ccc(N)cc2)nn1
inactive: [1] 0.0941 | [10] -0.0774 | [5] 0.18 | [11] 0.126

CCC1(O)CC2CN(CCc3c([nH]c4ccccc34)[C@@](C(=O)OC)(c3cc4c(cc3OC)N(C)C3[C@]45CCN4CC=C[C@@](CC)([C@@H](OC(C)=O)[C@]3(O)C(=O)OC)[C@H]45)C2)C1 (stereo partly drawn)
active: [2] -3.54 | [12] -0.483 | [6] -3.67 | [13] -0.537

CC(=O)Oc1cccc2c1C(=O)c1c(OC(C)=O)cc(C(=O)O)cc1C2=O
inactive: [1] 0.0277 | [10] 0.0297 | [5] 0.151 | [11] 0.0875

N/C(=N\S(=O)(=O)Cc1ccccc1)Nc1nc2ccccc2o1
inactive: [1] 0.0883 | [10] 0.00923 | [5] 0.149 | [11] 0.031

O=C(Nc1ccccn1)c1cc(-c2ccccc2)nc2ccccc12
inactive: [1] 0.083 | [10] -0.00975 | [5] 0.0888 | [11] -0.0311

COC(=O)C1=CO[C@@H](O[C@@H]2O[C@H](CO)[C@@H](O)[C@H](O)[C@H]2O)[C@@H]2[C@@H](C)[C@@H](O)C[C@H]12
inactive: [1] 0.0575 | [10] -0.00514 | [5] 0.124 | [11] 0.114

O=c1oc(Cl)c(Cl)c2ccccc12
inactive: [2] 0.184 | [12] 0.123 | [6] 0.147 | [13] 0.165

CC(=O)N[C@@H](CCC(=O)O)C(=O)O
inactive: [1] 0.0426 | [10] 0.0495 | [5] 0.162 | [11] 0.0791

CCCC(=O)Nc1ncnc2c1ncn2[C@@H]1O[C@@H]2COP(=O)(O)O[C@H]2[C@H]1OC(=O)CCC
inactive: [1] 0.0521 | [10] 0.034 | [5] 0.0682 | [11] 0.0438

CN1CCCC1c1cccnc1 (stereo not drawn)
inactive: [1] 0.113 | [10] 0.067 | [5] 0.0646 | [11] 0.132

CN1CCCC(n2nc(Cc3ccc(Cl)cc3)c3ccccc3c2=O)CC1 (stereo not drawn)
inactive: [14] 0.00451 | [15] 0.0233 | [3] 0.0154 | [16] 0.0686 | [4] 0.0285 | [17] 0.0485 | [7] 0.0385 | [18] 0.0809 | [8] 0.0197 | [19] 0.0247 | [9] -0.00429 | [20] -0.0202

CCN(CC)CCOc1ccc(/C(=C(\Cl)c2ccccc2)c2ccccc2)cc1
inactive: [14] 0.0849 | [15] 0.106 | [1] 0.0772 | [10] 0.0741 | [3] 0.0999 | [16] 0.0666 | [4] 0.0054 | [17] 0.0776 | [5] 0.197 | [11] 0.104 | [7] 0.063 | [18] 0.0123 | [8] 0.00146 | [19] 0.0364 | [9] -0.048 | [20] 0.0654

COc1c(C2COc3cc4c(cc3C2=O)CC(O)C(C)(C)O4)ccc2c1CCC(C)(C)O2 (stereo not drawn)
inactive: [1] 0.0719 | [10] 0.0278 | [5] 0.0883 | [11] 0.0229
